Results reported in patent US9816991B2, “Diagnostic peptides for lyme disease” (Biopeptides Corp., priority 2012, dated 2017).
Several values for one entry are separate records, joined by “and”; a condition that tells them apart may be missing. Equal values may be shown once. Not every detail of the peptide structures is certain; ends, links or a residue may be inferred. Ends that are not written are not given here. Peptide text beside a SMILES is read from it.

Tests used:
[1] = test system: serum IgM or IgG antibody; test: OspC peptide ELISA, composite recognition by serum antibody (either IgM or IgG); format: binding, human
serum IgG = test: OspC peptide ELISA, detection of serum IgG; format: binding, human; settings: for serum IgG binding, Equivocal / serum IgG binding, Equivocal (samples/total): between 2 SD and 3 SD; for serum IgG binding, Negative / serum IgG binding, Negative (samples/total): less than 2 SD
serum IgM = test: OspC peptide ELISA, detection of serum IgM; format: binding, human
[2] = test system: human IgG+IgM serum antibodies; test: OppA2 peptide ELISA; format: binding; settings: in words
Description: 96-well plates (Nunc Maxisorp) were coated with 10 μg/mL peptide, diluted in 0.1M carbonate-bicarbonate buffer, pH 9.4 (50 μL per well), for 1 hour at room temperature. Blocking buffer 1% bovine serum albumin (BSA) in PBS was added to the wells (250 μL/well) and incubated overnight at 4° C. Wells were washed three times with PBS containing 0.05% Tween 20 (PBS-T) and incubated for 2 hours at room temperature with human samples diluted 1:100 in PBS-1% BSA. Each plate included samples from patients and healthy donors, and all samples were assayed in triplicate. After washing, wells were incubated for 1 hour at RT with a 1:15,000 dilution of HRP-conjugated secondary antibody against human IgG+IgM. Reactions were developed for 30 minutes with 3,3′,5,5′-tetramethylbenzidine (TMB) in the dark at room temperature and the reaction was stopped by the addition of 2N H2SO4. Optical densities were determined at 450 nm and 570 nm wavelengths using a SpectraMax Plus plate reader (Molecular Devices). The cutoff for seropositivity was defined as the mean optical density (OD) of the healthy control samples plus two standard deviations (SD).
OppA2 peptides react specifically with antibodies from Lyme disease patients. The nine peptides were further screened by ELISA using serum or plasma obtained from 104 patients with physician-diagnosed Lyme disease. All patients presented with one or more EM. Control sera was obtained from 45 healthy donors residing in a region of the United States non-endemic for LD, New Mexico. All peptides were incubated with serum in triplicate, and results were validated in two independent experiments. For each peptide, the threshold value for immunoreactivity was defined as the mean optical density (OD) value plus two standard deviations (SD) of results obtained using healthy donor sera. […] OppA2 (191-225) and OppA2 (381-400) were detected by only 2.2% and 6.7%, respectively, of the healthy donor samples.

[3] = test system: serum IgG and IgM antibodies; test: Confirmatory ELISA of OspC peptides with high titer Lyme sera (FIG. 5); format: binding, human; settings: 18 high titer Lyme sera, 10 healthy sera; mean absorbance
[4] = test system: sera containing antibodies against B. burgdorferi sensu stricto; test: ProArray Ultra peptide microarray epitope mapping of OspC type K; format: binding, human; settings: for serum samples bound in the epitope mapping: of the eight Lyme serum samples
[5] = Lyme sera, between 2 SD and 3 SD
[6] = Lyme sera, more than 3 SD from mean of healthy controls
[7] = ROC, Lyme sera vs all negative controls
[8] = ROC, Lyme sera vs healthy controls, cut-off 3SD
[9] = Healthy sera, between 2 SD and 3 SD
[10] = Syphillis sera, between 2 SD and 3 SD

PVVAESPKKP [PepC10, PVVAESPKKP, reference compound]
composite recognition (IgM or IgG), Equivocal [1, 5]: 16.3%
composite recognition (IgM or IgG), Equivocal (samples/total) [1, 5]: (16/98)
composite recognition (IgM or IgG), Negative ([1]; Lyme sera, less than 2 SD): 34.7%
composite recognition (IgM or IgG), Negative (samples/total) ([1]; Lyme sera, less than 2 SD): (34/98)
composite recognition (IgM or IgG), Positive (samples/total) ([1]; Lyme sera, more than 3 SD): 48 of 98 and (48/98)
composite recognition by serum antibody (IgM or IgG), Positive [1, 6]: 49.0%
composite recognition (IgM or IgG), positive+equivocal ([1]; early Lyme sera): 65.3%
composite recognition (IgM or IgG), positive+equivocal (samples of total) ([1]; early Lyme sera): 64 of 98
serum IgG binding, Equivocal (serum IgG; Healthy sera): 0%
serum IgG binding, Equivocal (samples/total) (serum IgG; Healthy sera): (0/48)
serum IgG binding, Negative (serum IgG; Healthy sera): 91.7%
serum IgG binding, Negative (samples/total) (serum IgG; Healthy sera): (44/48)
serum IgG binding, Positive (serum IgG; Healthy sera, more than 3 SD): 8.3%
serum IgG binding, Positive (samples/total) (serum IgG; Healthy sera, more than 3 SD): (4/48)
serum IgG binding, Equivocal (serum IgG; Lyme sera): 11.2%
serum IgG binding, Equivocal (samples/total) (serum IgG; Lyme sera): (11/98)
serum IgG binding, Negative (serum IgG; Lyme sera): 72.5%
serum IgG binding, Negative (samples/total) (serum IgG; Lyme sera): (71/98)
serum IgG binding, Positive (samples/total) (serum IgG; Lyme sera, more than 3 SD): 16 of 98 and (16/98)
serum IgG binding, Positive (serum IgG; [6]): 16.3%
serum IgG binding, Equivocal (serum IgG; RA sera): 4.2%
serum IgG binding, Equivocal (samples/total) (serum IgG; RA sera): (2/48)
serum IgG binding, Negative (serum IgG; RA sera): 93.8%
serum IgG binding, Negative (samples/total) (serum IgG; RA sera): (45/48)
serum IgG binding, Positive (serum IgG; RA sera, more than 3 SD): 2.0%
serum IgG binding, Positive (samples/total) (serum IgG; RA sera, more than 3 SD): (1/48)
area under the curve (AUC), IgG (serum IgG; ROC analysis): 0.7573
sensitivity for IgG (serum IgG; [7]): 17.35%
specificity for IgG (serum IgG; [7]): 94.81%
sensitivity for IgG detection (serum IgG; [8]): 17.35%
specificity for IgG detection (serum IgG; [8]): 91.67%
serum IgG binding, Equivocal (serum IgG; Syphillis sera): 0%
serum IgG binding, Equivocal (samples/total) (serum IgG; Syphillis sera): (0/39)
serum IgG binding, Negative (serum IgG; Syphillis sera): 94.9%
serum IgG binding, Negative (samples/total) (serum IgG; Syphillis sera): (37/39)
serum IgG binding, Positive (serum IgG; Syphillis sera, more than 3 SD): 5.1%
serum IgG binding, Positive (samples/total) (serum IgG; Syphillis sera, more than 3 SD): (2/39)
healthy control samples bound to IgG with absorbance more than 3SD from the mean of the population (outliers) (serum IgG; healthy control population, n=48): Two of 48
false positives within the normal control sera (IgG) (serum IgG; normal control sera, FIG. 7b): 4
mean absorbance, binding of IgG (serum IgG; serum from healthy controls, mean±SD, absorbance 450 nm-570 nm): 0.125±0.101 and 0.125±0.100
serum IgM binding, Equivocal (serum IgM; [9]): 6.2%
serum IgM binding, Equivocal (samples/total) (serum IgM; [9]): (3/48)
serum IgM binding, Negative (serum IgM; Healthy sera, less than 2 SD): 93.8%
serum IgM binding, Negative (samples/total) (serum IgM; Healthy sera, less than 2 SD): (45/48)
serum IgM binding, Positive (serum IgM; Healthy sera, more than 3 SD): 0%
serum IgM binding, Positive (samples/total) (serum IgM; Healthy sera, more than 3 SD): (0/48)
serum IgM binding, Equivocal (samples/total) (serum IgM; [5]): (13/97)
serum IgM binding, Equivocal (serum IgM; Lyme sera, between 2 SD and 3 SD from mean of healthy controls): 13.4%
serum IgM binding, Negative (samples/total) (serum IgM; Lyme sera, less than 2 SD): (44/97)
serum IgM binding, Negative (serum IgM; Lyme sera, less than 2 SD from mean of healthy controls): 45.4%
serum IgM binding, Positive (serum IgM; [6]): 41.2%
serum IgM binding, Positive (samples/total) (serum IgM; [6]): 40 of 97 and (40/97)
serum IgM binding, Equivocal (serum IgM; RA sera, between 2 SD and 3 SD): 2.0%
serum IgM binding, Equivocal (samples/total) (serum IgM; RA sera, between 2 SD and 3 SD): (1/48)
serum IgM binding, Negative (serum IgM; RA sera, less than 2 SD): 85.5%
serum IgM binding, Negative (samples/total) (serum IgM; RA sera, less than 2 SD): (41/48)
serum IgM binding, Positive (serum IgM; RA sera, more than 3 SD): 12.5%
serum IgM binding, Positive (samples/total) (serum IgM; RA sera, more than 3 SD): (6/48)
area under the curve (AUC), IgM (serum IgM; ROC analysis): 0.7406
sensitivity for IgM (serum IgM; [7]): 29.90%
specificity for IgM (serum IgM; [7]): 99.26%
sensitivity for IgM detection (serum IgM; [8]): 29.90%
specificity for IgM detection (serum IgM; [8]): 100.00%
serum IgM binding, Equivocal (serum IgM; [10]): 7.7%
serum IgM binding, Equivocal (samples/total) (serum IgM; [10]): (3/39)
serum IgM binding, Negative (serum IgM; Syphillis sera, less than 2 SD): 71.8%
serum IgM binding, Negative (samples/total) (serum IgM; Syphillis sera, less than 2 SD): (28/39)
serum IgM binding, Positive (serum IgM; Syphillis sera, more than 3 SD): 20.5%
serum IgM binding, Positive (samples/total) (serum IgM; Syphillis sera, more than 3 SD): (8/39)
mean absorbance, binding of IgM (serum IgM; serum from 48 healthy donors, mean±SD, absorbance 450 nm-570 nm): 0.335±0.187

CC[C@H](C)[C@H](N)C(=O)N[C@@H](Cc1ccccc1)C(=O)N[C@@H](Cc1ccccc1)C(=O)N[C@@H](CC(C)C)C(=O)N[C@H](C(=O)N[C@@H](Cc1ccccc1)C(=O)N[C@@H](CC(C)C)C(=O)N[C@@H](CS)C(=O)N[C@@H](CS)C(=O)N[C@@H](CC(N)=O)C(=O)N[C@@H](CC(N)=O)C(=O)N[C@@H](CCCCN)C(=O)N[C@@H](CCC(=O)O)C(=O)N[C@@H](CCCNC(=N)N)C(=O)N[C@@H](CCCCN)C(=O)O)[C@@H](C)O [OppA2 (11-25), IFFLTFLCCNNKERK] (H-IFFLTFLCCNNKERK-OH)
reactivity of Lyme disease patient sera compared with sera from healthy donors [2]: comparable to that of sera from healthy donors

TLLAGAYTISKLITQ [OspC18, TLLAGAYTISKLITQ]
serum antibody binding, Lyme disease patients compared to normal individuals [3]: equivalently
serum samples bound in the epitope mapping [4]: more than 50%

AKKAILITDAAKDKG [OspC30, AKKAILITDAAKDKG]
serum antibody binding, Lyme disease patients compared to normal individuals [3]: significantly higher
serum samples bound in the epitope mapping [4]: more than 50%

FISCNNSGKDGNTSA [peptide 2, FISCNNSGKDGNTSA]
samples that bound peptide 1 that also bound this peptide ([4]; eight Lyme serum samples): 3 of 5
